# The campaign covered roughly 5,400 compounds. About 190 (3.5%) showed an effect of 50% or more. Some of the results follow.
# System: Vero-E6
# Test: primary screen, phospholipidosis by LipidTOX staining; higher = more effect of the substance
# Settings: 10 µM
# Summary of the method: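 Drug-induced phospholipidosis detected with HCS LipidTOX Red reagent in Vero-E6 cells. Compounds tested at 10 μM, with amiodarone (10 μM) as positive control and DMSO (0.1 v/v %) as vehicle.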
row,Structure (SMILES),result_ITMP
1,Nc1nc(N)nc(NC2CC2)n1,6.38%
2,C[C@@H]1O[C@@H](OC[C@H]2O[C@@H](Oc3c(-c4ccc(OCCO)c(OCCO)c4)oc4cc(OCCO)cc(O)c4c3=O)[C@H](O)[C@@H](O)[C@@H]2O)[C@H](O)[C@H](O)[C@H]1O,-1.19%
3,COc1ccc2c(c1)c(CC(=O)N1CCOCC1)c(C)n2C(=O)c1ccc(Cl)cc1,-7.89%
4,CC(C)(C)n1nc(-c2cccc3ccccc23)c2c(N)ncnc21,1.01%
5,OC(c1cc(C(F)(F)F)nc2c(C(F)(F)F)cccc12)C1CCCCN1 (stereo not drawn),50%
6,CNCCCC12CCC(c3ccccc31)c1ccccc12,107%
7,CCc1c(O)cc(O)c(C(=O)c2ccc(OCCN3CCOCC3)c(OC)c2)c1CC(=O)N(CCOC)CCOC,-2.15%
8,COc1ccc(CCN2CCN(CCCc3ccccc3)CC2)cc1OC,12%
9,O=C1Cc2c([nH]c3ccc(Br)cc23)-c2ccccc2N1,-5.18%
10,Cc1coc2c1C(=O)C(=O)c1c-2ccc2c1CCCC2(C)C,-0.72%
11,NC(CC(F)C(=O)O)C(=O)O (racemic),-4.91%
12,N=C(N)Nc1nc(CSCCN/C=N/S(=O)(=O)c2ccc(Br)cc2)cs1,0.59%
13,CCCCCCC(=O)OC1CC(C)(C)NC(C)(C)C1,0.44%
14,Oc1cc2c(cc1O)CN(C(=S)NCCc1ccc(Cl)cc1)CCC2,-3.83%
15,CCCCCC(=O)O[C@]1(C(C)=O)CC[C@H]2[C@@H]3CCC4=CC(=O)CC[C@]4(C)[C@H]3CC[C@@]21C,-1.89%
16,Cc1c(C)c2c(c(C)c1OC(=O)CCC(=O)O)CC[C@@](C)(CCC[C@H](C)CCC[C@H](C)CCCC(C)C)O2,1.74%
17,O=C(O[C@@H]1Cc2c(O)cc(O)cc2O[C@@H]1c1ccc(O)c(O)c1)c1cc(O)c(O)c(O)c1,-2.21%
18,C[C@@H]1C[C@H]2[C@@H]3C[C@H](F)C4=CC(=O)C=C[C@]4(C)[C@@]3(Cl)[C@@H](O)C[C@]2(C)[C@H]1C(=O)COC(=O)C(C)(C)C,-2.11%
19,COC(=O)N[C@H](C(=O)N1CCC[C@H]1c1ncc(-c2ccc3c(c2)O[C@@H](c2ccccc2)n2c-3cc3cc(-c4cnc([C@@H]5CCCN5C(=O)[C@@H](NC(=O)OC)C(C)C)[nH]4)ccc32)[nH]1)C(C)C,3.24%
20,COc1c(C)c2c(c(O)c1C/C=C(\C)CCC(=O)O)C(=O)OC2,-0.26%
21,CSc1ccc([C@H]2CN3CCC[C@H]3c3ccccc32)cc1 (racemic),14.1%
22,O=C(O)c1ccc(S(=O)(=O)N(Cl)Cl)cc1,-3.49%

row,Structure (SMILES),result_ITMP
1,O=[N+]([O-])c1cn2c(n1)OC[C@@H](OCc1ccc(-c3ccc(OC(F)(F)F)cc3)nc1)C2,-1.07%
2,O=C(Oc1ccccc1C(=O)O)c1ccccc1O,-2.04%
3,CCCCCNC(=N)N/N=C/c1c[nH]c2ccc(OC)cc12,3.52%
4,CS(=O)(=O)c1ccc(-c2cnc(N)c(C(=O)Nc3ccccc3)n2)cc1,-11.9%
5,NS(=O)(=O)c1cc(Cl)c(Cl)c(S(N)(=O)=O)c1,-0.52%
6,O=C(O)C1=CO[C@@H](O[C@@H]2O[C@H](CO)[C@@H](O)[C@H](O)[C@H]2O)[C@@H]2C(CO)=CC[C@H]12,-3.87%
7,C[N+]1([O-])C2CCC1CC(OC(=O)C(CO)c1ccccc1)C2 (stereo not drawn),0.6%
8,CCN1CCCC(OC(=O)C(c2ccccc2)c2ccccc2)C1 (stereo not drawn),6.22%
9,Cc1ccc(Nc2ncc3c(n2)N(C)C(=O)N(c2cc(NC(=O)c4cccc(C(F)(F)F)c4)ccc2C)C3)cn1,-0.23%
10,CN(C)CCCSC(=N)N,3.38%
11,O=C(CNC(=O)c1cccc(C(F)(F)F)c1)N[C@@H]1CCN(Cc2ccc(Cl)cc2)C1,12.4%
12,CCCC(CCC)C(=O)NCc1ccc2c(cnn2-c2ccccc2OC)c1,0.82%
13,NS(=O)(=O)OC[C@@H]1C[C@@H](n2ccc3c(N[C@H]4CCc5ccccc54)ncnc32)C[C@@H]1O,-0.05%
14,CN(C)CCOc1ccc(-c2nc(-c3ccncc3)c(-c3ccc4c(c3)CC/C4=N\O)[nH]2)cc1,-2.12%
15,NCCNCCNCCN,-4.13%
16,C=CCNC(=O)c1cc([N+](=O)[O-])cc2c(=O)[nH]c(Nc3ccc(Cl)c(Cl)c3)nc12,-1.98%
17,C[C@H](Cc1cc2c(c(C(N)=O)c1)N(CCCO)CC2)NCCOc1ccccc1OCC(F)(F)F,-1.36%
18,CC(O)(P(=O)([O-])O)P(=O)([O-])O,-0.98%
19,Cc1cccc(NC(=O)N[C@@H]2N=C(c3ccccc3)c3ccccc3N(CC(=O)c3ccccc3C)C2=O)c1,-5.95%
20,C/C(=C\C(=O)Nc1ccccc1C(=O)O)c1ccc2ccccc2c1,-3.63%
21,O=C(c1ccc(/C=C/c2n[nH]c3ccccc23)cc1)N1CCNCC1,29.6%
22,Cc1cc(Cl)ccc1OCCCC(=O)NO,-3.77%

row,Structure (SMILES),result_ITMP
1,O=C(NCCN1CCOCC1)c1ccc(Cl)cc1,-6.19%
2,O=C(c1ccc(CN2CCOCC2)cc1)N1CCN(C2CC2)CC1,-1.81%
3,COc1cccc(OC)c1-c1cc(C(=O)N[C@@H](CC(C)C)C(=O)O)nn1-c1ccnc2cc(Cl)ccc12,-4.8%
4,[2H]C([2H])([2H])C(=O)Nc1c(I)c(C(=O)O)c(I)c(C(=O)NC)c1I,-3.9%
5,Cc1ccc(-n2sc(=O)n(Cc3ccc(F)cc3)c2=O)cc1,-5.56%
6,O=[N+]([O-])c1cc(O)c(O)c([N+](=O)[O-])c1,-2.09%
7,CN1C(=O)OC(C)(C)C1=O,2.55%
8,CC(=O)CCCCn1c(=O)c2c(ncn2C)n(C)c1=O,-6.36%
9,COc1cc2c(cc1OCCCN1CCCC1)N=C(N)C21CCC1,-2.04%
10,Oc1ccnc(S)n1,-2.88%
11,O=C(O)Cc1cccnc1C(=O)O,-1.68%
12,COc1ccc(C(=O)/C(Br)=C/C(=O)[O-])cc1,7.96%
13,C=CCNc1nc(NCC=C)nc(N2CCN(C(c3ccc(F)cc3)c3ccc(F)cc3)CC2)n1,1.15%
14,OCCN1CCN(CCCN2c3ccccc3C=Cc3ccccc32)CC1,50.3%
15,CN[C@@H]1C[C@@H](c2ccc(Cl)c(Cl)c2)c2ccccc21,71.1%
16,COc1cccc(Nc2c(C(N)=O)cnc3c(C)cc(S(=O)(=O)c4cccc(C(=O)N(C)C)c4)cc23)c1,2.11%
17,C[C@H]1O[C@@H](n2cc(F)c(=O)[nH]c2=O)[C@H](O)[C@@H]1O,-4.17%
18,CC[C@H](C(=O)N1CCCC[C@H]1C(=O)O[C@H](CCc1ccc(OC)c(OC)c1)c1cccc(OCC(=O)NCCNC(=O)COc2cccc([C@@H](CCc3ccc(OC)c(OC)c3)OC(=O)[C@@H]3CCCCN3C(=O)[C@@H](CC)c3cc(OC)c(OC)c(OC)c3)c2)c1)c1cc(OC)c(OC)c(OC)c1,-7.12%
19,CC(C)(C)c1nc(-c2cccc(NS(=O)(=O)c3c(F)cccc3F)c2F)c(-c2ccnc(N)n2)s1,3.38%
20,CC(C)=CCc1c(O)cc(O)c2c(=O)c(O)c(-c3ccc(C(F)(F)F)cc3)oc12,-2.77%
21,Cc1c(C(=O)Nc2ccc(N3CCC(N4CCOCC4)CC3)c(C#N)c2)cnn1-c1ccc(Cl)cc1,3.85%
22,N[C@@H](Cc1cc(CP(=O)(O)O)cc(-c2ccccc2Cl)c1)C(=O)O,-0.92%

row,Structure (SMILES),result_ITMP
1,Nc1ccc(C(=O)[O-])cc1,5.13%
2,O=C(O)CCCCC(CCSCc1ccccc1)SCc1ccccc1 (stereo not drawn),-6.39%
3,Cc1nn(-c2ccccc2)c(C)c1/C=N/N1CCN(Cc2ccccc2)CC1,-2.24%
4,Nc1ncnc2c1ncn2[C@@H]1O[C@H](CO)[C@@H](O)[C@H]1O,-2.41%
5,Clc1ccc(CSC(Cn2ccnc2)c2ccc(Cl)cc2Cl)cc1 (stereo not drawn),-2.27%
6,O=C(c1ccc(Nc2nccc(-c3cc4ccccc4s3)n2)cc1)N1CCC(N2CCCC2)CC1,-0.03%
7,C[n+]1cc2c3c(ccc2c2ccc4cc5c(cc4c21)OCO5)OCO3,-11.7%
8,Nc1nc(=O)c2nc(Br)n([C@@H]3O[C@@H]4COP(=O)([O-])O[C@H]4[C@H]3O)c2[nH]1,-1.41%
9,C[C@@H](NC(=O)c1ncnc(N)c1Cl)c1ncc(C(=O)Nc2cc(C(F)(F)F)c(Cl)cn2)s1,-1.48%
10,CN(C)C(=S)SC(=S)N(C)C,-1.56%
11,CN(c1ccc(NC(=O)Nc2ccccc2)cc1)S(=O)(=O)c1cnn(-c2ccc(F)cc2)c1,1.57%
12,Cc1cc(C)c(Nc2ccnc(Nc3ccc(C#N)cc3)n2)c(C)c1,32.3%
13,CN1C(=O)CC(c2ccccc2)C1=O (stereo not drawn),-6.4%
14,COc1ccccc1N1CCN(CCN(C(=O)C2CCCCC2)c2ccccn2)CC1,10.5%
15,Nc1ccn([C@@H]2O[C@H](CO)[C@@H](O)C2(F)F)c(=O)n1,-2.59%
16,O=C(NCCCN1CCC2(CC1)OCc1ccccc12)[C@H]1CCCN1Cc1ccccc1,35.1%
17,Fc1ccc(Cl)cc1-c1nc(Nc2ccncc2)c2nccnc2n1,-2.83%
18,CN(C)CCN(Cc1ccccc1)c1ccccn1,3.36%
19,CC1CNc2c(cccc2S(=O)(=O)N[C@@H](CCCNC(=N)N)C(=O)N2CC[C@@H](C)C[C@@H]2C(=O)O)C1 (stereo partly drawn),-1.37%
20,Clc1cccc(N2CCNCC2)c1,4.14%
21,O=C(/C=C/c1ccccc1)NC(NC(=S)Nc1cccc2cccnc12)C(Cl)(Cl)Cl (stereo not drawn),-1.04%
